± gives the standard deviation of the averaged measurements. The list shows a part of the results.
These sequences were tested on PfAP2-EXP AP2 domain (GST-tagged) (assay: gcPBM binding intensity (ln(normalized median fluorescence intensity)); higher = stronger DNA binding).
Outline: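 Binding intensity is defined as the maximum Masliner-normalised natural-log median intensity across replicate spots for either probe orientation. It was measured on an Agilent 4 × 180k array of primer-extended double-stranded 36-bp intergenic genomic probes and negative controls, to which GST-tagged P. falciparum DNA-binding domains made in E. coli were applied for 1 h in 1× PBS with 1% milk, 0.2 mg/ml BSA, 0.5% salmon testes DNA and 0.03% Triton X-100. Detection was by Alexa488 anti-GST antibody and scanning at 488 nm.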

Row | Sequence | gcPBM binding intensity (ln)
1 | ATATTTTTTTTTCTTTCGCACACGTGAAAGAATTTC [CACACA_site8636] | 8.73 ± 0.43
2 | AAAATAAAAATTAACTGTACATACATTATTCAAATT [XGTACX_site6106] | 8.37 ± 0.39
3 | AGAAGTTTATCTTTTAGTACGCATAAAAAAAAAAAA [XGTACX_site2359] | 8.63 ± 0.43
4 | TATAAATAATTATATTGTACTCTTTATATTTTTCTT [XGTACX_site5335] | 8.59 ± 0.32
5 | TATAGTAATATTTGAAGTACAAAATTAAAATAAATA [XGTACX_site7634] | 8.57 ± 0.33
6 | TTAAATAGCTGTAATTGTACAAATAAATACATAAAT [XGTACX_site3097] | 8.7 ± 0.42
7 | TTATATAAGGTCTATATATAAATATTAATGATAAGG [TGCATGCA_negctrl_site354] | 8.38 ± 0.4
8 | TTAATATTTTGATGTGTACACATTAAAATAGTTTTA [CACACA_site5712] | 8.21 ± 0.36
9 | GGGAGGATATTTCACAGTACCCAGGAAATCTGCGGA [XGTACX_site2555] | 8.69 ± 0.49
10 | TAAATATATATATGGTGTACCATTTTGGGTTAATAT [XGTACX_site2706] | 8.49 ± 0.3
11 | TATATTATTTTTTATTGTACTTAAAAATATTATTTG [XGTACX_site1443] | 8.46 ± 0.35
12 | AGTTTAAATTAAATTACACACTACGAATAATATATT [CACACA_site7811] | 8.43 ± 0.33
13 | AGTATAAGCATTATTGTGCACATAATTATAATTTTT | 9.1 ± 0.085
14 | TATTAATCTTTTTTTAAACAAAAAATTAAGCAAATT [CACACA_negctrl_site884] | 8.09 ± 0.38
15 | AATAATGAAACAGGAAAAAAATATTGTTAAAATGTA [XGTACX_negctrl_site400] | 8.85 ± 0.27
16 | GTTGCAATTAACACTAGTACATATAAGTAGTTTATT [XGTACX_site2063] | 8.72 ± 0.18
17 | ATTGTTCTCCAAAAGTGTACGTATTATTTTTCTGGA [XGTACX_site1404] | 8.71 ± 0.43
18 | TATATATTAATAAATAGTACCCGTGGAATTTATATT [XGTACX_site5855] | 8.44 ± 0.38
19 | AACAAATATATTAACACACAAACATATAAACCAATG [CACACA_site3970] | 8.86 ± 0.38
20 | AACTAATAAAAAAAAAGTACACAATATGTAAATAAC [XGTACX_site5263] | 8.88 ± 0.39
21 | AAGCGAATATATATCACACACAAAAAAATCAGACTA [CACACA_site2108] | 8.69 ± 0.57
22 | AATTATTGTGAAGGGAAAACAAAAAAGTTTATAATT [CACACA_negctrl_site1337] | 8.64 ± 0.52

Row | Sequence | gcPBM binding intensity (ln)
23 | ACCACATTTTTTTTTGCATGTTGTTTAAAAAAAGGC [TGCATGCA_site137] | 8.78 ± 0.42
24 | AAATTAATTAAATATACACACATATATAGATATATA [CACACA_site6321] | 8.32 ± 0.38
25 | TATATATTATATATATGTACATACTTTTTACGTTCA [XGTACX_site2493] | 8.71 ± 0.46
26 | TATATATAATATATATGTACATAATATATTTTATAT [XGTACX_site2909] | 8.19 ± 0.29
27 | TAAAACACTCATGGCACACATAAAACATTTTTATGA [CACACA_site3574] | 8.33 ± 0.52
28 | ATTATTATTTATATGATACACACGTACATATACGCA [CACACA_site3823] | 8.39 ± 0.33
29 | TATAAAAAATAATTATCATGAAATATATGATCATCA [TGCATGCA_negctrl_site137] | 8.48 ± 0.4
30 | ATATGAATAAATAAAAGTACATACATAATGTATTAT [XGTACX_site5969] | 8.56 ± 0.28
31 | TCAAAAATGAGTTACACACACACATATATATATATA [CACACA_site2229] | 10.2 ± 0.47
32 | TATATTTTTTATAAATGTACATGGATAGGCATAAAC [XGTACX_site8401] | 8.94 ± 0.15
33 | TTAAAAAAAATATAATGTACTTGTAGAATTATATTT [XGTACX_site6220] | 8.09 ± 0.26
34 | ACAAATAAATAAAAAACACACACAAATAAATAAATA [CACACA_site8708] | 8.62 ± 0.5
35 | AGTATATAAAATACTGTATCGATGGGGGAGGGCGCA [CACACA_negctrl_site1612] | 9.97 ± 0.23
36 | AATATAATGCAATATACACACATATATTTCTCTTTT [CACACA_site7276] | 8.42 ± 0.33
37 | TAATAATAAAATATTTGTACATATAAAATATGGCTG [XGTACX_site7904] | 8.39 ± 0.38
38 | AATTTTTTTCTCCAAGTGCATTAGAACATTAACGTA [GTGCAC_site9413] | 8.63 ± 0.11
39 | ATATATTTATGTATCACACACAAAAAAAAAAAATAA [CACACA_site255] | 8.39 ± 0.36
40 | ATTTTCCTTTAATTATGTACTTATGTAATAATAATG [XGTACX_site2612] | 8.51 ± 0.33
41 | ATCTCTACAAAGTGCACACACGTAAAAACATATATA [CACACA_site6046] | 9.04 ± 0.35
42 | GCACACATATAATTAAACATATATTTGTATTATTTT [GTGCAC_negctrl_site327] | 8.37 ± 0.3
43 | GTATCATAAAAGTATACACACATACATACATATGTA [CACACA_site5456] | 8.56 ± 0.37
44 | TGTATGATTATGTTGTGTACGTAAAATATGAAAAAT [XGTACX_site1720] | 9.12 ± 0.42

Reference: the supplement of paper PMC11417369
